About 2,200 (0.71%) of roughly 310,000 compounds showed an effect of 50% or more. The effect is printed as a negative number. The list shows a part of the results.

The target in the test is human ether-à-go-go-related gene (hERG) potassium channel (human, UniProt Q12809). Put plainly: primary screen, population patch clamp on CHO cells stably expressing hERG.
Chain of human ether-à-go-go-related gene (hERG) potassium channel (Q12809 whole entry, looked up): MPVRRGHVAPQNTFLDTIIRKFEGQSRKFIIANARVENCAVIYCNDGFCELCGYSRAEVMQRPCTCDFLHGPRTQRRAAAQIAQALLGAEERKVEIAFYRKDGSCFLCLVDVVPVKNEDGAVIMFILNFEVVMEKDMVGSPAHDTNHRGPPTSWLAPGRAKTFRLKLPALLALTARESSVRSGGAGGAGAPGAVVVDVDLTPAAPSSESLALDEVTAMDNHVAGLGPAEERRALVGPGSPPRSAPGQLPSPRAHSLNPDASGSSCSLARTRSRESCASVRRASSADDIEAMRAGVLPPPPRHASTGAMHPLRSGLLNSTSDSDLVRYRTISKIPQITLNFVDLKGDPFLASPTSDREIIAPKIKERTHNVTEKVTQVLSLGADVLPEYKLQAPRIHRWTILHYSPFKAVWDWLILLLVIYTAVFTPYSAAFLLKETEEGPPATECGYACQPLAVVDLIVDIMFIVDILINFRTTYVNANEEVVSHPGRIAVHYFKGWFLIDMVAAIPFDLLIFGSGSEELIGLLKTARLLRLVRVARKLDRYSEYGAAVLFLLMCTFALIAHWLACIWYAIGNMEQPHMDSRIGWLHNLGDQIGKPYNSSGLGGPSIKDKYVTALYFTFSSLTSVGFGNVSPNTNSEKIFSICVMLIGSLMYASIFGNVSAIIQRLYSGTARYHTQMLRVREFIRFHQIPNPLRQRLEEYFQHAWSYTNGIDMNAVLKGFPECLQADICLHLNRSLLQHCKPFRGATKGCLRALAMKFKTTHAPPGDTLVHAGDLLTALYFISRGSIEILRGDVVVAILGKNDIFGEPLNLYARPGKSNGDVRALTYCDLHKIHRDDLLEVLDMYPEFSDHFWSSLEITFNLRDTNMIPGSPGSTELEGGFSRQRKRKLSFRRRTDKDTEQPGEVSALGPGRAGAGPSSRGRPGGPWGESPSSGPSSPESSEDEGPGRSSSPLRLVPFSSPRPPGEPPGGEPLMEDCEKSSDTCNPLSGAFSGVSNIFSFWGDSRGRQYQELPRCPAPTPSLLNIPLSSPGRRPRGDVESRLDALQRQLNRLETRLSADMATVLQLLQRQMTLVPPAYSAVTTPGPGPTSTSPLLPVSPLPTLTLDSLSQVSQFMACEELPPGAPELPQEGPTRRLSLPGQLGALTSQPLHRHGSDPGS
Turning to `COc1ccc(C(=O)/C=C/c2cc(OC)c(O)c(OC)c2)c(F)c1`, the “hERG current change (%, negative = inhibition) at 1uM” value came to 3.59%.

Take `Cc1ccccc1CSc1nnc(NC(=O)Cc2cccs2)s1`: the “hERG current change (%, negative = inhibition) at 1uM” value is reported as 9.22%.

For `COC(=O)c1ccc(-n2c(CCC(=O)O)ccc2-c2ccc(C)cc2)cc1`, the “hERG current change (%, negative = inhibition) at 1uM” value worked out at 9.78%.

As to `CCCCc1nnc(NC(=O)C(C)Sc2nc(O)c(Cc3ccccc3)c(=O)[nH]2)s1` (centres unmarked), the “hERG current change (%, negative = inhibition) at 1uM” value is on record as 11.1%.

On to `COc1cc2cnncc2cc1OC`, for which the “hERG current change (%, negative = inhibition) at 1uM” value stood at 7%.

`O=Cc1c(C(=O)O)n(Cc2ccccc2F)c2ccccc12`: the “hERG current change (%, negative = inhibition) at 1uM” value is given as 13%.

Turning to `CCCCCn1c(N2CCOCC2)nc2c1c(=O)n(CC(N)=O)c(=O)n2C`, the “hERG current change (%, negative = inhibition) at 1uM” value amounted to 0.163%.

As to `Cc1cc(C)cc(NS(=O)(=O)c2cnc(Cl)c(Cl)c2)c1`, the “hERG current change (%, negative = inhibition) at 1uM” value is given as 8.7%.

`O=S(=O)(Nc1ncccn1)c1ccc(NC(=S)N2CCN(Cc3ccc(F)cc3Cl)CC2)cc1`: the “hERG current change (%, negative = inhibition) at 1uM” value is 21.2%.

As for `CCC(=O)c1ccc(OC(=O)Cc2ccc(OC)cc2)cc1`, the “hERG current change (%, negative = inhibition) at 1uM” value came to 17.1%.

Consider `CCOC(=O)C1(Cc2ccccc2)CCN(Cc2cccn2-c2cccnc2)CC1`, for which the “hERG current change (%, negative = inhibition) at 1uM” value was found to be 1.67%.

For the compound `COc1ccc(C2Nc3ccccc3C(=O)N2Cc2ccco2)cc1COc1ccccc1F` (centres unmarked), the “hERG current change (%, negative = inhibition) at 1uM” value came out at 5.97%.

As for `O=C(NC(=S)Nc1cccc2cc(O)ccc12)c1ccco1`, the “hERG current change (%, negative = inhibition) at 1uM” value came to 10.9%.

With `Cc1ccc(NC(=O)c2ccc([N+](=O)[O-])o2)cc1S(=O)(=O)N1CCOCC1`, the “hERG current change (%, negative = inhibition) at 1uM” value is -1.06%.

For the compound `COc1ccc(NC(=O)COC(=O)CO/N=C(\C)c2ccc3c(c2)OCO3)cc1S(N)(=O)=O`, the “hERG current change (%, negative = inhibition) at 1uM” value was found to be 4.37%.

Regarding `COc1cc(/C=N/NC(=O)CCC(=O)Nc2ccc(Br)cc2)ccc1O`, the “hERG current change (%, negative = inhibition) at 1uM” value came to 8.45%.

`O=C1CNC(=O)N1CC(O)Cn1c2ccccc2c2ccccc21` (centres unmarked): the “hERG current change (%, negative = inhibition) at 1uM” value amounted to 11.5%.

For the compound `COc1cc(CNc2ccc(O)cc2)cc(Br)c1OCc1ccccc1F`, the “hERG current change (%, negative = inhibition) at 1uM” value came to 10.1%.

Take `c1ccc(CCCc2nc(-c3ccccn3)no2)cc1`: the “hERG current change (%, negative = inhibition) at 1uM” value amounted to 12.9%.

As for `C=CCNC(=O)C(=O)NCCCN1CCOCC1`, the “hERG current change (%, negative = inhibition) at 1uM” value was determined as 8.34%.

`CCN(c1ccccc1)S(=O)(=O)c1ccc(OC)c(NC(=O)C2CC(=O)N(Cc3ccccc3)C2)c1` (centres unmarked): the “hERG current change (%, negative = inhibition) at 1uM” value is recorded as -0.75%.

As for `Cc1c(CC(=O)NCCCO)c(=O)oc2cc3c(cc12)CCC(C)(C)O3`, the “hERG current change (%, negative = inhibition) at 1uM” value turned out to be 16.8%.

As for `Cc1ccccc1Nc1c([N+](=O)[O-])ccc2c1=NC1(CCCCC1)N=2`, the “hERG current change (%, negative = inhibition) at 1uM” value was -0.0666%.

In the case of `O=C(Nc1ccccc1Cl)NC1(C(=O)N2CCCCC2)CCCCC1`, the “hERG current change (%, negative = inhibition) at 1uM” value was 21.5%.

In the case of `Cc1ccccc1N(Cc1nnc2n1CCCCC2)C(=O)Nc1ccccc1`, the “hERG current change (%, negative = inhibition) at 1uM” value was 18.9%.

For `Cc1ccc(NC(=O)C2CC(=O)NC(Nc3cccc(C)c3)=N2)cc1` (centres unmarked), the “hERG current change (%, negative = inhibition) at 1uM” value came out at 16.5%.

For the compound `COCCNC(=O)c1cc(-c2ccc(-c3ccccc3)cc2)nc2ccccc12`, the “hERG current change (%, negative = inhibition) at 1uM” value turned out to be 5.89%.

Consider `COCCOC1CCN(C(=O)C2CCC(=O)N(CCc3ccccc3)C2)CC1` (centres unmarked), for which the “hERG current change (%, negative = inhibition) at 1uM” value is listed as 15.1%.

For the compound `CC(C)(C)c1ccc(NC(=O)CSc2n[nH]c(=O)n2-c2cccnc2)cc1`, the “hERG current change (%, negative = inhibition) at 1uM” value was found to be 17.6%.

For `CCOC(=O)c1sc2nc3c(SCC(=O)O)cc(C(=O)c4ccccc4O)cn3c(=O)c2c1C`, the “hERG current change (%, negative = inhibition) at 1uM” value is listed as 1.09%.

With `CCC(C)Oc1ccc(/C=C/c2[nH]c(=O)[nH]c(=O)c2[N+](=O)[O-])cc1OC` (centres unmarked), the “hERG current change (%, negative = inhibition) at 1uM” value was -4.41%.

On to `O=[N+]([O-])c1ccc(-c2csc(NN=C3CCCC3)n2)cc1`, for which the “hERG current change (%, negative = inhibition) at 1uM” value is reported as 16.3%.

Take `COC(=O)c1ccccc1NC(=S)NC(=O)c1ccccc1C`: the “hERG current change (%, negative = inhibition) at 1uM” value was -9.42%.

As to `N=C1C(c2nc3ccccc3s2)=C(O)CN1C1CCCCC1`, the “hERG current change (%, negative = inhibition) at 1uM” value was -2.44%.

For `Cc1nc(SCc2ccc(OCCC(C)C)cc2)n[nH]1`, the “hERG current change (%, negative = inhibition) at 1uM” value worked out at 2.69%.

`Cc1ccc(-n2c(C)cc(/C=C(\C#N)C(=O)NCC3CCCO3)c2C)cc1` (centres unmarked): the “hERG current change (%, negative = inhibition) at 1uM” value is reported as -2.16%.

With `CCOc1ccccc1NC(=O)C(OC(=O)c1ccc(NC(=O)CC#N)cc1)c1ccccc1` (centres unmarked), the “hERG current change (%, negative = inhibition) at 1uM” value turned out to be 7.67%.

As for `COc1ccc(NC(=O)CSc2nnc(CNC(=O)c3ccco3)o2)c(OC)c1`, the “hERG current change (%, negative = inhibition) at 1uM” value was 8.02%.

`Br.CC(C)O.Cc1ccc(-c2csc(Nc3ccccc3)[n+]2CCc2ccccc2)cc1`: the “hERG current change (%, negative = inhibition) at 1uM” value amounted to 14.6%.

In the case of `CC(=O)NC1(C(F)(F)F)NC(=O)N(C2CCCCC2)C1=O` (centres unmarked), the “hERG current change (%, negative = inhibition) at 1uM” value is -11.3%.

As to `COc1ccc2[nH]cc(CCNCc3cccnc3)c2c1.Cl`, the “hERG current change (%, negative = inhibition) at 1uM” value was found to be 14.6%.

For `CN1N=C(C(=O)N2CCCC(C(=O)c3cccc(C(F)(F)F)c3)C2)CCC1=O` (centres unmarked), the “hERG current change (%, negative = inhibition) at 1uM” value was found to be 13.3%.

Regarding `O=C(C1CC(c2ccc(F)cc2)=NO1)N1CCN(c2ccccc2)CC1` (centres unmarked), the “hERG current change (%, negative = inhibition) at 1uM” value amounted to 11.3%.

For `CC(=O)Nc1cccc(NC(=O)C(=O)c2cn(CC(=O)N3CCCCC3)c3ccccc23)c1`, the “hERG current change (%, negative = inhibition) at 1uM” value is -2.31%.

The values above are taken from publication PMC4336329 (PLoS ONE, 2015).
